# Test results: the supplement of paper PMC11417369
# ± gives the standard deviation of the averaged measurements. The list shows a part of the results.
# System: PfAP2-EXP AP2 domain (GST-tagged)
# Test: gcPBM binding intensity (ln(normalized median fluorescence intensity)); higher = stronger DNA binding
# Method in brief: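 Binding intensity values are the highest Masliner-normalised natural-log median intensity among replicate spots of either probe orientation. The binding step lasted 1 h in 1× PBS with 1% milk, 0.2 mg/ml BSA, 0.5% salmon testes DNA and 0.03% Triton X-100, using GST-tagged P. falciparum DNA-binding domains expressed in E. coli on an Agilent 4 × 180k array of primer-extended double-stranded 36-bp intergenic genomic probes plus negative controls. Alexa488 anti-GST antibody and a 488 nm scan detected bound protein.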
row,Sequence,gcPBM binding intensity (ln)
1,TTATTAATATTGCATGCACACTATATAATAATTGAA [CACACA_site8258],10.11 ± 0.057
2,AAAATATAGTTATCAATATATAATATTTTTTTTTTA [CACACA_negctrl_site459],7.88 ± 0.46
3,TATAAATAGGCATATACACACTTTTAATATTCATAA [CACACA_site6123],8.38 ± 0.44
4,TTTTTTTTTTTTTGTGTGCACCTTATTTTTTTGTAT [GTGCAC_site9617],9.24 ± 0.4
5,CAAACACCCAAACACACACACACATACATACATACA [CACACA_site8044],9.36 ± 0.34
6,CTATTGTTAAATATAATACACACGTTTTTAAAAATA [CACACA_site2183],8.39 ± 0.47
7,ATAGTAATGCATAAATATATATTATATATATATATA [XGTACX_negctrl_site576],9.76 ± 0.24
8,GTATATATTTTGTATTCATTTGTCACATATAATAGA [CACACA_negctrl_site506],8.69 ± 0.5
9,TATAAAATGACTATATATAATATTAAAAAAAAAAAA [TGCATGCA_negctrl_site387],8.23 ± 0.52
10,ATTATATATACATAATGTACATATATATATTACCTT [XGTACX_site7624],8.4 ± 0.35
11,TAAATTAAGAATTTTACACACATTAAATAAAAAAAA [CACACA_site3638],8.24 ± 0.41
12,AAAAAAAAAAAAAATTCACACACATATAAAAAATTA [CACACA_site8140],8.31 ± 0.47
13,AAATTAGGAAATTGCACACAAAAAAAAACATATTAT [CACACA_site4074],8.61 ± 0.45
14,TTTTTTTATTTTTTTATAAATGTATTTCTATTATTT [CACACA_negctrl_site1562],8.19 ± 0.43
15,TAAAAAATAAATATATGTACGCAATAAATGTGTTAA [XGTACX_site4043],8.47 ± 0.22
16,ACACATATGCATATATGTACATAATATATTAAACTT [XGTACX_site5975],8.74 ± 0.46
17,AAAAAAAAAAGACACACACACACACTAATACATACA [CACACA_site6473],8.62 ± 0.54
18,ATGTTTTACAAAAACACACAAATGAATATAAACATA [CACACA_site6667],8.68 ± 0.41
19,ATACCTATTTGATGAGTGCATTATCCAATATATGTA,8.85 ± 0.3
20,AAAAGTGATGAGACAAGTACTAACATATTATTATTA [XGTACX_site1533],8.39 ± 0.38
21,TTTTCTGTATAAACTTGTACATATATTTCCTTGTTT [XGTACX_site5745],8.69 ± 0.32
22,AAATATATATGTATATGTACTTATTTATTTAAAAGG [XGTACX_site4093],8.03 ± 0.39
23,TTTATTATATATAAAAGTACACATTGTAAGGAAACA [XGTACX_site8560],8.88 ± 0.24

row,Sequence,gcPBM binding intensity (ln)
1,ATATGTTCTACAAAAAAGATGTCGATTTATTTTCTT [CACACA_negctrl_site1179],8.39 ± 0.54
2,AAATAAAATATCAATTAAAACAGAATTGAATTTTTA [CACACA_negctrl_site181],8.25 ± 0.41
3,AACATGTTAAAATAAACACACAGCTAAGGTTTTTTT [CACACA_site157],8.43 ± 0.42
4,AAAAAAAAAAAAAAATGTACAAATAGTAGTTACAGA [XGTACX_site2531],8.6 ± 0.45
5,GCAAATGTGAAAACGTGTACACATTTTATTTAATTT [XGTACX_site8000],8.52 ± 0.24
6,ATTTAAGATTTAATCACACACATATATATTATATAC [CACACA_site2907],8.38 ± 0.44
7,ATAATATATGTATATCCACACACATATATATATATA [CACACA_site8471],10.2 ± 0.38
8,AAATGTAGATATTATCGTACACATATATTTATATAT [XGTACX_site6326],8.4 ± 0.23
9,TATTTGTAAATCGATACACACATATATATTAATATA [CACACA_site196],8.56 ± 0.64
10,AAAACATACCTATATACACACATATAAATATAAATA [CACACA_site6956],8.54 ± 0.35
11,TTTGATATAGAAAGAGCATGCAAGTTAGATAAAATA [TGCATGCA_site470],9.66 ± 0.36
12,AATAAATTATTATGTACACACATAATAGTATATATA [CACACA_site1820],8.35 ± 0.28
13,TATATATTAATATACACACACACATATATATATATA [CACACA_site1608],10.1 ± 0.33
14,TTTTTTTTTTTTTGGTTCACACTGAAAAGAGAGATA [GTGCAC_negctrl_site439],8.48 ± 0.61
15,AAAACAAAATAGGGAACACACACATGTCAATATATA [CACACA_site8834],8.88 ± 0.41
16,TTTCAAACTGTTCTCACACACGAAATTAGAAATGAA [CACACA_site4509],8.62 ± 0.47
17,CAATCATGGTTTTACACACACATGCATGTGAAAATT [CACACA_site4870],9.3 ± 0.47
18,TTTTGTTATTTTGAAGTGCACTTTCCACTTAATATA,9.245 ± 0.035
19,TCATGTTTTACAAAAACACACAAATGAATATAAACA [CACACA_site4775],8.67 ± 0.44
20,AATAAATAAAAATTATGTACATATATAAAAAATACA [XGTACX_site8581],8.77 ± 0.25
21,TCGAATTTGGAAAGAAGTACATGAAGCCAACATATG [XGTACX_site5222],8.91 ± 0.51
22,TATATACATAGACACCCACACACAAAAAAAAAAAAA [CACACA_site8186],8.46 ± 0.64
23,AAGAATAATAACAAATGTACTTATATAAAGTATTAT [XGTACX_site2336],8.52 ± 0.42

row,Sequence,gcPBM binding intensity (ln)
1,TAATTAAATATTTTCCTACAATTAATAAGAAAAGGA [XGTACX_negctrl_site565],8.3 ± 0.34
2,AAATATAATATATGCACACATACATACATATATATA [CACACA_site104],8.46 ± 0.22
3,TTTTCCTTTTTGGAATGTACACATATATATTAAATG [XGTACX_site4700],8.29 ± 0.3
4,CAGCTCTTAAAAATTACACACATATACGCATATATA [CACACA_site3267],8.4 ± 0.44
5,TATTAAGAAGAAAATTCACACATTTGTACCTCTCTT [CACACA_site4822],8.22 ± 0.44
6,TATAAATAGATATATACACACATGAAAATAAATAAA [CACACA_site7228],8.73 ± 0.39
7,GAAAATAGCTAAAATACACACAATTAAAAGTTATTA [CACACA_site7614],8.43 ± 0.59
8,TTACAAAAATGTGGTTGTACACAAACAAAAAAAATA [XGTACX_site8506],8.84 ± 0.24
9,AAAATTTAATATAATGCACACATAAAAAAAAAAAAT [CACACA_site8425],8.905 ± 0.007
10,TATAATATAATATATGCACACAAATATGTATATATG [CACACA_site8664],8.065 ± 0.049
11,AACTATATATAACTAGTGCAAAGACAATATTTTAAA,8.57 ± 0.33
12,TTCTTTAAAATAAATTGTACTAACATATATATATAT [XGTACX_site6045],10.1 ± 0.3
13,TTGTTTATTTTTTATTACTATAAAGATGTTATATAT [CACACA_negctrl_site1506],8.59 ± 0.43
14,ATAATATCTTTATGTGTGCACATATATATATATATA,10.1 ± 0.38
15,TATATAAATATATATGTACACACATATACATGTTGA [CACACA_site9022],8.31 ± 0.28
16,TTTTTTTTTGTTTACACACCCAAATCACATACATAT [CACACA_site4052],8.75 ± 0.52
17,AAAATAAAAATACACATTTTTTTTTTTTTTTTTTTT [TGCATGCA_negctrl_site515],8.88 ± 0.18
18,TTTTTTTTTTTTTTTGCACACTTGATTTGAGCTTAT [CACACA_site4042],8.34 ± 0.4
19,AAAAAAAACAGACACACACACATAAATATATATAAA [CACACA_site148],8.78 ± 0.64
20,TAAATAATTTATAAGTGTACTATTATTGCACGAATA [XGTACX_site7715],9.13 ± 0.69
21,CATTAGGTCTTTTGTACATGCAAGTGTGTGCGTAAA [TGCATGCA_site255],9.11 ± 0.23
22,ATGATTTTTTCTGTATGTACATAAAAATAAAATTCT [XGTACX_site5698],8.48 ± 0.33
23,TATGTGTAATATTTTTGTACAGAAAAAAAAAAAAAA [XGTACX_site7075],8.59 ± 0.54

row,Sequence,gcPBM binding intensity (ln)
1,AAAAAAAAAAAAAACACACACATGCACATCATATTA [CACACA_site4467],8.73 ± 0.36
2,AAAAAAAAAATTAAAACATGCATAAATAAATATATT [TGCATGCA_site866],8.73 ± 0.37
3,ATATTTTTATTAGTAGTGCAATTTAGTGTATATATA [GTGCAC_site9542],8.81 ± 0.071
4,TCATTTCACAGACACACACACACAATATATTTCCTT [CACACA_site9295],8.86 ± 0.48
5,AAAAAAAAAAAATATACACACTAATATATTTTTTTA [CACACA_site4604],8.31 ± 0.59
6,TATTTAAAAAGAAAAAAAAAAAAAAAAATACATATA [CACACA_negctrl_site164],8.25 ± 0.45
7,TATATACGCAAACACACACACACATACACCCACATA [CACACA_site1724],8.59 ± 0.44
8,TATTAAATTTATCGGAGTACATTTAAATGTATATAC [XGTACX_site7975],8.66 ± 0.37
9,TATTACTATGTTATAACTTTTTTAAACGTGATCATA [TGCATGCA_negctrl_site128],8.34 ± 0.51
10,TGACTGTAGATATTTTGTACATAACCTAATATATAT [XGTACX_site970],8.44 ± 0.36
11,TAGTAGTTATCACTAACATGCAATAATATTATTTAA [TGCATGCA_site161],8.51 ± 0.38
12,CGTATAAATATACGTGCATGTAACTTTTTCTATATT [TGCATGCA_site981],8.98 ± 0.23
13,CTATTTATTTTTGATGCATGCCAAATATAGAAAAAA [TGCATGCA_site368],9.28 ± 0.26
14,TTATGTACAATTTCTTCTTTCTTTTTTCCTAAAGAC [CACACA_negctrl_site1193],8.56 ± 0.45
15,TTTTTTTTTTTTTTTTGTACACATAATATGAATAAT [XGTACX_site2661],8.34 ± 0.37
16,ATAACATATATATATACACACACATATATATATGAA [CACACA_site7983],8.45 ± 0.34
17,TACAGTTCAATGAAGGTGCAATTAATATATAAAATA,8.84 ± 0.071
18,ATAATATAATACGAAGGTACACATTTTCTTAATATA [XGTACX_site7947],8.35 ± 0.32
19,ATATATTTTTTGAATACACACATATTATAGGTAATA [CACACA_site6709],8.33 ± 0.45
20,TTTTTTTTTCTTTTCAAACACACAATTGGTATATAT [CACACA_site3321],8.62 ± 0.4
